The record followed here is patent publication US20220290196A1, “GENETICALLY ENGINEERED MICROBES AND BIOSYNTHETIC METHODS” (The Regents of the University of California, priority 2019, published 2022).

A word on the Km: it is the substrate concentration at which the rate is half of its maximum.

For part of its entries the source gives two or more results. Only these are listed. An entry can have further records. Values given together appear to be repeats (runs, samples, wells or individuals).

Substrate in this series: N[C@@H](Cc1c[nH]c2cc(Cl)ccc12)C(=O)O
Put plainly: Kinetic characterization of Tar13-catalyzed oxidation of L-6-Cl-tryptophan. It is filed as biochemical, Saccharomonospora sp. CNQ-490. As to conditions: other: Tar13, L-6-Cl-Trp, 30° C., pH 8.0. The method, then:
To determine kinetic parameters for Tar13-catalyzed oxidation of L-6-Cl-tryptophan, the following reaction conditions were used:
Buffer: up to 50 μL (50 mM Tris, 500 mM NaCl 10% glycerol, pH 8.0)
In a separate Eppendorf tube premix:
The enzyme mixture was added to the substrate solution to start the reactions. The reactions were incubated at 30° C. for 5, 10, 15, 30 min, after which the assays were quenched by addition of equal volume of HPLC grade methanol and frozen at −70° C. till further analysis by HPLC. All assays were performed in triplicates for each substrate concentration and every time point. In parallel, for each time point and substrate concentration, assays with no added enzyme were used as controls. Prior HPLC analysis (method 5), L-tryptophan was added to the quenched reaction mixtures as an internal standard for quantification.
Product formation was quantitated by calculating decrease of the area of the remaining substrate in comparison to the substrate peak area in the control with no enzyme added, and the ratio of peak areas to internal standard were fitted into a calibration curve to determine product concentrations.

B1: Saccharomonospora sp. CNQ-490 Tar13 (tryptophan 2,3-dioxygenase), wild type, SEQ ID NO: 1 (expressed SEQ ID NO: 2) (Saccharomonospora piscinae) (protein)
chain: MTERTATRTEPAYGEILRLDELLELACVNDEADRALFLSAHQACEIWFAVVLRHLEDVTDALSLDDGATAAELLERLPRIITVIIEHFEVLGTLKPEAFDRIRADLGSSSGFQSVQYREIEYLCGARDTRFLNTAGFRDRDRRRLRERLAKRSLSNVFLEYRGRAGDRDACRISDALHEFDDSVRALRLRHAGIAELFLGSIPGTAGTAGAAYLRRSASRTLFPELFDRRASGTGG
As for B1, the Km is 112.3±23.7 μM and 12.3 μM.
